The whole screen tested about 48,000 compounds, of which about 550 (1.1%) were called active. About 4% were inconclusive and are not listed. Cut-off read from the data, not from the text of the source: active = potency below about 15 µM; inconclusive = mostly about 16 µM to 33 µM; inactive = weaker than that. The list shows a part of the results.
Potency is the fitted concentration of half-maximal effect.

Chain of UniProt P04062 (P04062 whole entry, looked up): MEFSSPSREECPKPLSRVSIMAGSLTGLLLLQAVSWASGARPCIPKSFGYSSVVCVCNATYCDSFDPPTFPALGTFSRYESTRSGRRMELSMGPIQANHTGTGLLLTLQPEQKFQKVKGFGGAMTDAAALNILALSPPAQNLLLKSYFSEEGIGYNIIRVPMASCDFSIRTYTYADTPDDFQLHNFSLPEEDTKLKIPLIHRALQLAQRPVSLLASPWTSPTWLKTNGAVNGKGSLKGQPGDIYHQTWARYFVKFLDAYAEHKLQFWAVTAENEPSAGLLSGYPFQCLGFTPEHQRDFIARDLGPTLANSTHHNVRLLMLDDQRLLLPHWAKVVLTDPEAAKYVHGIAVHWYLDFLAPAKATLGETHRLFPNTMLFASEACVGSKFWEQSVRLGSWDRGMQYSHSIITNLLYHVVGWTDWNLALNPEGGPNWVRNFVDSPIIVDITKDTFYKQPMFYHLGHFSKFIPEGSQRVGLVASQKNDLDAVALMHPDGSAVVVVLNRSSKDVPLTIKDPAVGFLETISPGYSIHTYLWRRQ

The assay concerns the target Lysosomal acid glucosylceramidase (Homo sapiens) (UniProt P04062). In words: Glucocerebrosidase.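 Note: the screen sought inhibitors.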 Conditions: purified enzyme, resorufin glucoside fluorescence (screen aimed at inhibitors), 20 min. The text has this:
NCGC Assay Overview: Beta-glucocerebrosidase catalyzes the hydrolysis of beta-glucocerebroside to glucose and ceramide. The inherited deficiency of beta-glucocerebrosidase results in Gaucher disease, which is characterized by a wide variety of symptoms including hepatosplenomegaly, anemia, thrombocytopenia, bony lesions and bone marrow infiltration with characteristic storage cells, known as Gaucher cells. There are also forms of the disorder affecting the central nervous system. Patients with the same genotypes can manifest with diverse clinical presentations and it is believed that improper folding and trafficking of beta-glucocerbrosidase may contribute to the phenotypes observed. Low molecular weight molecules, acting as chaperones, may potentially restore trafficking of misfolded beta-glucocerebrosidase from the endoplasmic reticulum to the lysosomes, thereby enhancing functional lysosomal beta-glucocerebrosidase activity. Using normal beta-glucocerebrosidase, an assay was developed to screen for small molecule inhibitors that could potentially act as molecular chaperones on the mutant forms [developed with NIH investigator Dr. Ellen Sidransky's laboratory]. Two pro-fluorescent substrates were chosen for two screens against a small molecule library. One beta-glucocerebrosidase assay used Resorufin beta-D-Glucopyranoside (Marker Gene Technology Inc.), generating a red fluorescent product. The second assay used Fluorescein di-beta-D-Glucopyranoside, generating a blue fluorescent product. […] The IC50 values of Conduritol B Epoxide, a known glucocerebrosidase inhibitor, were determined to be 87.5 uM and 117 uM, respectively. The use of two difference pro-fluorescent substrates in the screens helped to eliminate false positives. All compounds were screened in a titration series resulting in AC50s (e.g., IC50s or EC50s).
NCGC Assay Protocol Summary: Both enzyme and substrate were diluted in buffer composed of 50mM citric acid/KH2PO4, 10mM sodium taurocholate and 0.01% tween-20 at pH 5.9. The final concentration of the enzyme was 0.2 nM in both assays. The compound library was titrated in 7 to 15 concentrations for the primary screens with a final concentration ranging from 0.6 nM to 50 uM. This particular assay protocol is for the "red" substrate, and it was performed in 1536-well plate format as follows: Red fluorescence substrate assay: 2 uL enzyme 23 nL compound 1 uL substrate (final concentration of 30 uM) Incubate at room temperature (RT) for 20 minutes Read the plate in Viewlux plate reader (Ex=548(7) and Em=600(10)).
Take `O=C(Nn1cnnc1)c1ccc(F)c(S(=O)(=O)N2CCCCC2)c1`: the Potency is inactive: > 76.9 µM.
For `CN(C)c1ccc(CN(C(=O)COc2ccccc2)C2CCS(=O)(=O)C2)cc1` (centres undefined), the Potency was inactive: > 76.9 µM.
Then `O=c1cc(NC2CCCCCC2)[nH]c(=O)[nH]1`, with inactive: > 76.9 µM.
Take `Cc1ccc(-n2ncc3c(Nc4c(C)n(C)n(-c5ccccc5)c4=O)ncnc32)c(C)c1`: the Potency was inactive: > 76.9 µM.
Regarding `c1csc(Cc2nc3ccccc3[nH]2)c1`, the Potency was inactive: > 76.9 µM.
Consider `CC(NC(=O)c1ccccc1NS(C)(=O)=O)c1ccccc1` (centres undefined), for which the Potency was inactive: > 76.9 µM.
With `CN(Cc1nc(-c2ccncc2)no1)S(=O)(=O)c1ccc(Br)cc1`, the Potency is inactive: > 76.9 µM.
For the compound `Cc1ccc(OCCCC(=O)Nc2ccc(N3CCOCC3)cc2)c(C)c1`, the Potency was inactive: > 76.9 µM.
Turning to `Cc1cc(C)n(CCCNC(=O)c2ccc3c(c2)NC(=O)CS3)n1`, the Potency was inactive: > 76.9 µM.
Consider `COc1ccc(N(C(C)=O)S(=O)(=O)c2cc(OC)ccc2OC)cc1`, for which the Potency is inactive: > 76.9 µM.
Then `CCOC(=O)C(C#N)c1ccccn1` (centres undefined), with inactive: > 76.9 µM.
Then `Cc1nn(CC(=O)Nc2ccc(C(=O)N3CCCCC3)cc2)c(=O)c2ccccc12`, with inactive: > 76.9 µM.
Consider `CC1(C(=O)Nc2nccs2)Cc2ccccc2C(=O)O1` (centres undefined), for which the Potency was inactive: > 76.9 µM.
Turning to `O=C(O)C1OC(C(=O)O)C2C1C(F)(F)C2(F)F` (centres undefined), the Potency was inactive: > 76.9 µM.
For `C=CCn1c(N)c(C(=O)NCC2CCCO2)sc1=S` (centres undefined), the Potency is inactive: > 76.9 µM.
`COc1cccc(-c2nc(CS(=O)CC(=O)NCCCOC(C)C)c(C)o2)c1` (centres undefined): the Potency is inactive: > 76.9 µM.
With `c1ccc(OCCSc2nnnn2C2CCCCC2)cc1`, the Potency is inactive: > 76.9 µM.
Regarding `O=c1c2c3c(sc2n2cnnc2n1CCc1ccccc1)CCCC3`, the Potency is inactive: > 76.9 µM.
For the compound `CCCc1cc(Nc2cccc(OCC)c2)n2ncnc2n1`, the Potency was inactive: > 76.9 µM.
Turning to `COc1ccc(C)cc1NC(=O)C1CCCN(S(=O)(=O)c2cccc3nonc23)C1` (centres undefined), the Potency was inactive: > 76.9 µM.
Then `Cc1nnc(SCC(=O)NCc2ccc(Cl)cc2)[nH]c1=O`, with inactive: > 76.9 µM; and `CCCCNC(=O)c1c[nH]c2ccc(S(=O)(=O)Nc3ccc(OCC)cc3)cc2c1=O`, with inactive: > 76.9 µM; and `C=CCNC(=O)CNS(=O)(=O)c1ccc(F)cc1`, with inactive: > 76.9 µM.
Turning to `Cc1ccc(C2CC(=O)c3cnc(N4CC(C)CC(C)C4)nc3C2)cc1` (centres undefined), the Potency was inactive: > 76.9 µM.
In the case of `Cc1noc(C)c1S(=O)(=O)N1CCCC(C(=O)NCCC2=CCCCC2)C1` (centres undefined), the Potency was inactive: > 76.9 µM.
`COc1cc(OC)cc(C(=O)Nc2cccc(N3CCCC3)c2)c1`: the Potency is inactive: > 76.9 µM.
`CCCN1C(=O)C(O)(CC(=O)c2cccc(OC)c2)c2ccccc21` (centres undefined): the Potency is inactive: > 76.9 µM.
Then `COC(=O)C(C(=O)Nc1ncccn1)C1CCCCCC1` (centres undefined), with inactive: > 76.9 µM.
Consider `CCCNC(=O)c1cc(-c2ccc(OC)cc2)on1`, for which the Potency is inactive: > 76.9 µM.
Turning to `O=[N+]1C2=C(CCCC2)N([O-])C12CCCC2`, the Potency is inactive: > 76.9 µM.
For the compound `O=C(c1ccco1)N1CCN(C(=O)c2sccc2-c2ccccc2)CC1`, the Potency was inactive: > 76.9 µM.
Then `Cc1cccc2cc(CN(CCCO)C(=O)Nc3ccc(Cl)cc3)c(=O)[nH]c12`, with inactive: > 76.9 µM; and `Fc1cccc(Cl)c1Cn1nnc2c(-n3ccnc3)ncnc21`, with inactive: > 76.9 µM; and `CCC(C)NS(=O)(=O)c1ccc(NS(C)(=O)=O)cc1` (centres undefined), with inactive: > 76.9 µM.
On to `O=C1c2ccc(Oc3ccc4c(c3)C(=O)N(CCCCO)C4=O)cc2C(=O)N1CCCCO`, for which the Potency is inactive: > 76.9 µM.
For `CCOC(=O)NC1(C(F)(F)F)NC(=O)N(Cc2ccco2)C1=O` (centres undefined), the Potency is inactive: > 76.9 µM.
For `N#CCSc1nnc(C2CCCCC2)n1Cc1ccccc1`, the Potency is inactive: > 76.9 µM.
As to `Nc1nonc1-c1nc2ccccc2n1CC(=O)N1CCN(c2ccc(F)cc2)CC1`, the Potency was inactive: > 76.9 µM.
As to `CCn1c(SCC(=O)Nc2ccc(S(=O)(=O)Nc3ccccn3)cc2)nnc1-c1ccncc1`, the Potency is inactive: > 76.9 µM.
Regarding `COCCn1c(C)cc(C(=O)COC(=O)CCN2C(=O)c3ccccc3C2=O)c1C`, the Potency was inactive: > 76.9 µM.
Then `CCN(CC)CCCN(Cc1cc2cc3c(cc2[nH]c1=O)OCCO3)C(=O)Nc1ccccc1`, with inactive: > 15.4 µM; and `O=C(CC1(O)C(=O)Nc2ccccc21)c1cccnc1` (centres undefined), with inactive: > 76.9 µM; and `COc1ccc(C(CC(=O)O)NC(=O)COc2ccccc2)cc1` (centres undefined), with inactive: > 76.9 µM.
As for `CN1CC(=O)N(CC(=O)NCCc2ccc(F)cc2)c2ccccc2C1=O`, the Potency was inactive: > 76.9 µM.
With `Fc1ccc(C2=Nn3c(Cc4ccccc4)nnc3SC2)cc1`, the Potency is inactive: > 76.9 µM.
Consider `N#Cc1c(N)oc(-c2ccc3c(c2)OCO3)c1-c1ccc2c(c1)OCO2`, for which the Potency was inactive: > 76.9 µM.
Then `CC1(C)Cc2ccccc2C(=O)N1`, with inactive: > 76.9 µM.
`O=c1cc(O)nc(SCc2ccccc2)[nH]1`: the Potency is inactive: > 76.9 µM.
`O=C(NCCc1ccccc1)C1CCCN(S(=O)(=O)c2cccc3nsnc23)C1` (centres undefined): the Potency is inactive: > 76.9 µM.
As to `CCCS(=O)(=O)N1CCC(C(=O)NCCc2ccccc2)CC1`, the Potency was inactive: > 76.9 µM.
Then `COc1ccc(Cl)cc1N1CC(C(=O)Nc2nccs2)CC1=O` (centres undefined), with inactive: > 76.9 µM; and `CC(C)(C)C(=O)CCN1C(=O)C2(OCCO2)c2ccccc21`, with inactive: > 76.9 µM; and `Cc1cc(NS(=O)(=O)c2ccc(NC(=O)CCCOc3ccc(Cl)cc3)cc2)no1`, with inactive: > 76.9 µM.
Then `COC(=O)C1=C(C(C)=O)C(c2ccc(C(=O)OC)cc2)n2nnnc2N1` (centres undefined), with inactive: > 76.9 µM.
Turning to `O=C(O)Cn1cnc2scc(-c3cccs3)c2c1=O`, the Potency was inactive: > 76.9 µM.
Consider `Cc1cc(C)n(Cc2ccc(C(=O)O)o2)n1`, for which the Potency was inactive: > 76.9 µM.
For the compound `CC(=O)Nc1ccc(S(=O)(=O)Nc2ccc(NC(=O)c3ccco3)cc2)cc1`, the Potency was active: 10.8 µM.
In the case of `O=c1[nH]c(=O)n(C2CCCO2)cc1Br` (centres undefined), the Potency was inactive: > 76.9 µM.
`COc1ccccc1-c1nnc2n1N=C(C(C)(C)C)CS2`: the Potency was inactive: > 76.9 µM.
With `CCC(C)[C@H](NC(=O)NC1CC1)C(=O)O` (some centres undefined), the Potency was inactive: > 76.9 µM.
On to `Cc1ccccc1Cn1cnc2c(cnn2C(C)(C)C)c1=O`, for which the Potency is inactive: > 76.9 µM.
As for `Cc1ccc(S(=O)(=O)C2(C(=O)Nc3ccc(F)cc3)CC2)cc1`, the Potency was inactive: > 76.9 µM.
Then `Cn1nnnc1SCC(=O)Nc1c(Cl)cccc1Cl`, with inactive: > 76.9 µM.
On to `Cc1ccc(-n2ncc(C#N)c2/N=C/N2CCN(C)CC2)cc1`, for which the Potency was inactive: > 76.9 µM.
Then `COCC(=O)Nc1ccc(Nc2ccccc2)cc1`, with “inactive”; and `O=C(O)C1C2CCC(C2)C1C(=O)NCc1ccccn1` (centres undefined), with inactive: > 76.9 µM.
In the case of `Cc1cc(C(=O)Nc2nc3ccc(S(C)(=O)=O)cc3s2)c(C)o1`, the Potency is inactive: > 76.9 µM.
For `COc1cc(Cl)c(C)cc1NC(=O)CSc1nnc(-c2cccnc2)n1Cc1ccco1`, the Potency was inactive: > 76.9 µM.
For `CNc1nnc(-c2ccncc2)s1`, the Potency was inactive: > 76.9 µM.
Then `CNC(=O)c1cc(C)c(-c2ccccc2)s1`, with inactive: > 76.9 µM; and `CCc1nnc(NC(=O)CSc2nccn2-c2ccccc2)s1`, with inactive: > 76.9 µM; and `O=C(CSc1nnc(SCc2ccc(Cl)cc2)s1)N1CCOCC1`, with inactive: > 76.9 µM.
On to `COc1ccc(-n2c(COc3ccccc3)nnc2SCc2ccc(C#N)cc2)cc1`, for which the Potency is inactive: > 76.9 µM.
In the case of `O=c1c2ccccc2nc(-c2cccc(Cl)c2)n1O`, the Potency was inactive: > 76.9 µM.
Then `Cc1ccc(C)c(CN2CCNC2=O)c1`, with inactive: > 76.9 µM; and `CCC(c1nnnn1Cc1ccco1)N(CCc1ccccc1)Cc1cc2ccc(OC)cc2[nH]c1=O` (centres undefined), with active: 14.2 µM.
With `CCCCSc1nnc([C@H](CC(C)C)NC(=O)OC(C)(C)C)o1`, the Potency is inactive: > 76.9 µM.
As for `O=C(NC(Cc1ccccc1)C(=O)O)c1ccccc1` (centres undefined), the Potency was inactive: > 76.9 µM.
`COc1ccc(CNCC(=O)Nc2cc(C)nn2-c2nc(C)cc(C)n2)cc1OC`: the Potency was inactive: > 76.9 µM.
As for `CC(C)Cn1c(CCC(=O)O)ccc1-c1cccs1`, the Potency was inactive: > 76.9 µM.
Then `CCOC(=O)CSC1=C(C#N)C(c2ccccc2)C(C(C)=O)=C(C)N1` (centres undefined), with inactive: > 76.9 µM; and `O=C(NCc1ccco1)c1cc(-c2ccccn2)nc2ccccc12`, with inactive: > 76.9 µM.
Then `O=C(NCCCCO)C(F)(F)C(F)(F)C(F)(F)C(=O)NCCCCO`, with inactive: > 76.9 µM; and `CN(CCO)C(=O)c1cccc2c1-c1ccccc1C2=O`, with inactive: > 76.9 µM; and `Cc1cc(C)c(C#N)c(N2CCN(Cc3ccc4c(c3)OCO4)CC2)n1`, with inactive: > 76.9 µM.
Then `CC(=O)c1c(C)[nH]c(C(=O)OCC(=O)NCCc2ccc(F)cc2)c1C`, with inactive: > 76.9 µM; and `Clc1ccccc1OCc1nc(-c2ccncc2)no1`, with inactive: > 76.9 µM.
For the compound `CCOCC(=O)Nc1nc2ccc(OCC)cc2s1`, the Potency was inactive: > 76.9 µM.
Then `CSc1nnc2n(-c3ccccc3)c(=O)c3c4c(sc3n12)CCC4`, with inactive: > 76.9 µM; and `O=C(CN1CCC(n2nnc3cc(F)ccc32)CC1)NC1CC1`, with inactive: > 76.9 µM; and `O=C(CSc1ccccn1)N1CCN(c2ccccc2)CC1`, with inactive: > 76.9 µM.
With `CCN1CCCC1CNC(=O)CCc1nc(-c2ccc(C)cc2)no1` (centres undefined), the Potency was inactive: > 76.9 µM.
Take `CC(C1CC1)N(C(=O)NC1CCS(=O)(=O)C1)c1ccccc1` (centres undefined): the Potency is inactive: > 76.9 µM.
Then `Fc1ccccc1CSc1nnc(-c2cnccn2)n1Cc1ccco1`, with inactive: > 76.9 µM.

Source of the values: PubChem BioAssay AID360 (National Center for Advancing Translational Sciences (NCATS), 2006).
